The list shows a part of the results. Rule as the data show it: active = 3.2 or more and inactive = the rest. Only a few entries rise above the background.
B1: KIAA1614_Y1083 (peptide)
chain: NRSSLYLVAGP
B2: KIF3C_Y574 (peptide)
chain: ELRGTYTSLQQ
B3: KIT_Y547_YF (peptide)
chain: ILTFKYLQKPM
B4: KIR3DL2_Y253_YF (peptide)
chain: SSFDIYHLSRE
B5: KCNQ2_Y226_H228Q (peptide)
chain: LGSVVYAQSKE
B6: KDM4B_Y34_N29T_YF (peptide)
chain: TKFVAYIESQG
B7: KIT_Y823_D820G (peptide)
chain: KNGSNYVVKGN
B8: KCNT1_Y740_I741M (peptide)
chain: PPNSPYMGSSP
B9: KDM4C_Y201_E206D_YF (peptide)
chain: LFSINYLHFGD
B10: KIR3DL2_Y253 (peptide)
chain: SSYDIYHLSRE
B11: KIT_Y823 (peptide)
chain: KNDSNYVVKGN
B12: KIRREL3_Y332 (peptide)
chain: RTVDVYFGPRM
B13: KIR3DL2_Y253_I252T_YF (peptide)
chain: SSFDTYHLSRE
B14: KCNQ2_Y226 (peptide)
chain: LGSVVYAHSKE
B15: KDM4B_Y31_N29T (peptide)
chain: KDFTKYVAYIE
B16: KIT_Y553 (peptide)
chain: LQKPMYEVQWK
B17: KCNQ2_Y237_T234P (peptide)
chain: LVPAWYIGFLC
B18: KHDRBS3_Y304 (peptide)
chain: ADYYDYGHGLS

The binders below were run against SHP2 C-SH2 domain E139D (assay: enrichment score (SH2-bound / input frequency) (ratio); bacterial display of known human phosphotyrosine sites (pTyr-Var adds point mutants) read by sequencing; higher = stronger binding; tyrosines were phosphorylated by kinases first). Details: peptide library: pTyr-Var.
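Also: displayed peptides selected on beads carrying the immobilized SH2 domain, with library peptides lacking any tyrosine serving as negative controls.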

Which enrichment score does the source give for B1 here?
Its enrichment score is inactive: 1.13.

With B2 as the binder, how does the enrichment score read?
Its enrichment score is inactive: 0.733.

B3 was tested. Which enrichment score did it give?
The enrichment score was inactive: 1.39.

Which enrichment score does the source give for B4 here?
Its enrichment score is inactive: 1.34.

B5 was tested. Which enrichment score did it give?
Its enrichment score is inactive: 0.673.

B6 was tested. Which enrichment score did it give?
The enrichment score was inactive: 1.47.

With B7 as the binder, how does the enrichment score read?
The enrichment score was inactive: 0.396.

B8 was tested. Which enrichment score did it give?
The enrichment score was inactive: 0.423.

How did the enrichment score turn out when B9 was run?
The enrichment score was inactive: 2.86.

With B10 as the binder, how does the enrichment score read?
The enrichment score was inactive: 0.624.

With B11 as the binder, how does the enrichment score read?
Its enrichment score is inactive: 0.532.

For B12, which enrichment score is on record?
The enrichment score was inactive: 0.535.

Which enrichment score does the source give for B13 here?
Its enrichment score is inactive: 0.674.

With B14 as the binder, how does the enrichment score read?
The enrichment score was inactive: 0.969.

How did the enrichment score turn out when B15 was run?
Its enrichment score is inactive: 0.754.

B16 was tested. Which enrichment score did it give?
Its enrichment score is inactive: 0.877.

Which enrichment score does the source give for B17 here?
The enrichment score was inactive: 1.08.

How did the enrichment score turn out when B18 was run?
The enrichment score was inactive: 0.969.

What follows are binders tested against SHP2 C-SH2 domain wild-type in the same assay as above. Details: peptide library: pTyr-Var.

Which enrichment score does the source give for B1 here?
The enrichment score was inactive: 0.956.

Which enrichment score does the source give for B2 here?
Its enrichment score is inactive: 1.95.

Which enrichment score does the source give for B3 here?
Its enrichment score is inactive: 1.4.

With B4 as the binder, how does the enrichment score read?
The enrichment score was inactive: 0.759.

For B5, which enrichment score is on record?
The enrichment score was inactive: 1.03.

B6 was tested. Which enrichment score did it give?
Its enrichment score is inactive: 1.19.

For B7, which enrichment score is on record?
The enrichment score was inactive: 0.603.

Which enrichment score does the source give for B8 here?
The enrichment score was inactive: 0.554.

With B9 as the binder, how does the enrichment score read?
The enrichment score was inactive: 2.96.

B10 was tested. Which enrichment score did it give?
The enrichment score was inactive: 0.807.

Which enrichment score does the source give for B11 here?
Its enrichment score is inactive: 0.649.

B12 was tested. Which enrichment score did it give?
The enrichment score was inactive: 0.339.

B13 was tested. Which enrichment score did it give?
Its enrichment score is inactive: 0.452.

For B14, which enrichment score is on record?
Its enrichment score is inactive: 1.03.

With B15 as the binder, how does the enrichment score read?
Its enrichment score is inactive: 1.23.

How did the enrichment score turn out when B16 was run?
Its enrichment score is inactive: 0.801.

For B17, which enrichment score is on record?
Its enrichment score is inactive: 1.23.

For B18, which enrichment score is on record?
Its enrichment score is inactive: 0.642.

These binders were tested against SHP2 N-SH2 domain L43F in the same assay as above. Details: peptide library: pTyr-Var.

For B1, which enrichment score is on record?
The enrichment score was inactive: 0.947.

Which enrichment score does the source give for B2 here?
The enrichment score was inactive: 2.3.

Which enrichment score does the source give for B3 here?
The enrichment score was inactive: 1.31.

Which enrichment score does the source give for B4 here?
The enrichment score was inactive: 0.941.

B5 was tested. Which enrichment score did it give?
Its enrichment score is inactive: 0.948.

B6 was tested. Which enrichment score did it give?
Its enrichment score is inactive: 0.977.

How did the enrichment score turn out when B7 was run?
The enrichment score was inactive: 0.566.

For B8, which enrichment score is on record?
The enrichment score was inactive: 0.525.

Which enrichment score does the source give for B9 here?
The enrichment score was active: 3.47.

Which enrichment score does the source give for B10 here?
The enrichment score was inactive: 0.834.

Which enrichment score does the source give for B11 here?
Its enrichment score is inactive: 0.604.

For B12, which enrichment score is on record?
Its enrichment score is inactive: 0.448.

Which enrichment score does the source give for B13 here?
Its enrichment score is inactive: 0.586.

For B14, which enrichment score is on record?
Its enrichment score is inactive: 0.903.

For B15, which enrichment score is on record?
The enrichment score was inactive: 0.69.

B16 was tested. Which enrichment score did it give?
The enrichment score was inactive: 0.978.

B17 was tested. Which enrichment score did it give?
Its enrichment score is inactive: 1.16.

How did the enrichment score turn out when B18 was run?
The enrichment score was inactive: 0.949.

These binders were tested against SHP2 N-SH2 domain T42A in the same assay as above. Details: peptide library: pTyr-Var.

Which enrichment score does the source give for B1 here?
Its enrichment score is inactive: 2.31.

Which enrichment score does the source give for B2 here?
Its enrichment score is inactive: 1.57.

For B3, which enrichment score is on record?
Its enrichment score is inactive: 1.38.

Which enrichment score does the source give for B4 here?
Its enrichment score is inactive: 0.931.

For B5, which enrichment score is on record?
Its enrichment score is inactive: 0.602.

With B6 as the binder, how does the enrichment score read?
Its enrichment score is inactive: 1.21.

For B7, which enrichment score is on record?
The enrichment score was inactive: 0.428.

Which enrichment score does the source give for B8 here?
The enrichment score was inactive: 0.715.

Which enrichment score does the source give for B9 here?
Its enrichment score is active: 3.75.

B10 was tested. Which enrichment score did it give?
Its enrichment score is inactive: 0.71.

B11 was tested. Which enrichment score did it give?
Its enrichment score is inactive: 0.401.

Which enrichment score does the source give for B12 here?
Its enrichment score is inactive: 0.6.

For B13, which enrichment score is on record?
Its enrichment score is inactive: 0.424.

With B14 as the binder, how does the enrichment score read?
The enrichment score was inactive: 0.547.

With B15 as the binder, how does the enrichment score read?
Its enrichment score is inactive: 0.651.

With B16 as the binder, how does the enrichment score read?
The enrichment score was inactive: 0.735.

With B17 as the binder, how does the enrichment score read?
The enrichment score was inactive: 0.85.

For B18, which enrichment score is on record?
Its enrichment score is inactive: 0.699.

Each binder was assayed against SHP2 N-SH2 domain T52S in the same assay as above. Details: peptide library: pTyr-Var.

For B1, which enrichment score is on record?
The enrichment score was inactive: 0.852.

B2 was tested. Which enrichment score did it give?
Its enrichment score is inactive: 1.98.

With B3 as the binder, how does the enrichment score read?
Its enrichment score is inactive: 1.71.

B4 was tested. Which enrichment score did it give?
Its enrichment score is inactive: 1.12.

With B5 as the binder, how does the enrichment score read?
The enrichment score was inactive: 0.864.

B6 was tested. Which enrichment score did it give?
The enrichment score was inactive: 1.39.

With B7 as the binder, how does the enrichment score read?
Its enrichment score is inactive: 0.572.

Which enrichment score does the source give for B8 here?
The enrichment score was inactive: 0.633.

For B9, which enrichment score is on record?
The enrichment score was active: 3.3.

Which enrichment score does the source give for B10 here?
The enrichment score was inactive: 0.797.

B11 was tested. Which enrichment score did it give?
Its enrichment score is inactive: 0.425.

Which enrichment score does the source give for B12 here?
The enrichment score was inactive: 0.941.

Which enrichment score does the source give for B13 here?
The enrichment score was inactive: 0.682.

B14 was tested. Which enrichment score did it give?
The enrichment score was inactive: 0.849.

B15 was tested. Which enrichment score did it give?
Its enrichment score is inactive: 0.669.

With B16 as the binder, how does the enrichment score read?
The enrichment score was inactive: 0.784.

How did the enrichment score turn out when B17 was run?
Its enrichment score is inactive: 0.903.

B18 was tested. Which enrichment score did it give?
The enrichment score was inactive: 0.912.

Each binder was assayed against SHP2 N-SH2 domain wild-type in the same assay as above. Details: peptide library: pTyr-Var.

How did the enrichment score turn out when B1 was run?
Its enrichment score is inactive: 1.18.

For B2, which enrichment score is on record?
The enrichment score was inactive: 0.92.

B3 was tested. Which enrichment score did it give?
Its enrichment score is inactive: 1.62.

B4 was tested. Which enrichment score did it give?
Its enrichment score is inactive: 0.968.

How did the enrichment score turn out when B5 was run?
Its enrichment score is inactive: 1.1.

With B6 as the binder, how does the enrichment score read?
Its enrichment score is inactive: 1.55.

B7 was tested. Which enrichment score did it give?
Its enrichment score is inactive: 0.497.

Which enrichment score does the source give for B8 here?
Its enrichment score is inactive: 0.345.

For B9, which enrichment score is on record?
The enrichment score was inactive: 3.14.

For B10, which enrichment score is on record?
The enrichment score was inactive: 0.539.

How did the enrichment score turn out when B11 was run?
The enrichment score was inactive: 0.619.

B12 was tested. Which enrichment score did it give?
The enrichment score was inactive: 0.53.

With B13 as the binder, how does the enrichment score read?
Its enrichment score is inactive: 0.546.

For B14, which enrichment score is on record?
Its enrichment score is inactive: 0.618.

For B15, which enrichment score is on record?
Its enrichment score is inactive: 0.864.

With B16 as the binder, how does the enrichment score read?
Its enrichment score is inactive: 1.05.

For B17, which enrichment score is on record?
The enrichment score was inactive: 1.1.

For B18, which enrichment score is on record?
Its enrichment score is inactive: 0.866.

From the supplement of paper PMC10369915
